Measured values as given in the supplement of paper PMC10126150.
Values marked as one replicate rest on one cluster of the flow cell; about a third of the high ones do not repeat.
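Further: ATP exposure 15 min at 22 °C before imaging.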

These sequences were tested on ATP (assay: switch fluorescence ratio, 500 uM ATP over buffer (Cy3 cluster intensity, sum of 5 cycles each) (fold (ratio)); higher = stronger signal-on switching upon ATP binding; sequences stand for … in TCGTCGGCAGCGTCAGATGTGTATAAGAGACAGTTTTTTTTTTTTTTTTTTTTTTTTT…TC). Conditions: aptamer strand: ATP DNA aptamer (quencher-CACCTGGGGGAGTATTGCGGAGGAAGG + anchor), 100 nM annealed; ATP concentration: 500 uM; one replicate.
In short: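 The quencher-labelled ATP aptamer, at 100 nM, was annealed to Cy3-labelled switching-strand clusters on a modified Illumina MiSeq flow-cell. The clusters were imaged in selection buffer, then after 15 min with 500 uM ATP at 22 °C, and this buffer/ATP cycle ran five times with NaOH stripping and re-annealing between runs. Per-cluster fluorescence ratios, summed target-cycle over summed buffer-cycle Cy3 intensity, were averaged per switch-domain sequence. Clusters outside 100-1000 RFU were excluded.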
Sequence AACCGGGGCA has a switch fluorescence ratio of 1.05.
In the case of AACCGTTGCG, the switch fluorescence ratio is reported as 1.04.
Sequence AACCTACTAG has a switch fluorescence ratio of 1.14.
For AACCTATCTA, the switch fluorescence ratio was 1.05.
AACCTCACAT gave a switch fluorescence ratio of 1.13.
Work on AACCTCGTTT yielded a switch fluorescence ratio of 1.13.
AACCTGGCAA was tested, and the switch fluorescence ratio was 3.5.
Sequence AACCTGTTAG has a switch fluorescence ratio of 1.01.
Sequence AACCTTCGGT has a switch fluorescence ratio of 0.983.
In the case of AACCTTGCA, the switch fluorescence ratio is reported as 1.33.
In the case of AACGAACTCT, the switch fluorescence ratio is reported as 1.3.
AACGACATCC was tested, and the switch fluorescence ratio was 1.09.
With AACGACGCTT the switch fluorescence ratio was 1.06.
Work on AACGACGTGC yielded a switch fluorescence ratio of 1.13.
For AACGAGACAT, the switch fluorescence ratio was 1.12.
AACGAGGTAG gave a switch fluorescence ratio of 0.949.
Work on AACGATAACA yielded a switch fluorescence ratio of 1.09.
AACGATATAT showed a switch fluorescence ratio of 1.11.
AACGATCGCC was tested, and the switch fluorescence ratio was 1.13.
For AACGCGATTG, the switch fluorescence ratio was 1.19.
Work on AACGCGGGGT yielded a switch fluorescence ratio of 1.
For AACGCTAT, the switch fluorescence ratio was 1.28.
AACGCTATTT was tested, and the switch fluorescence ratio was 1.13.
Sequence AACGGACCAC has a switch fluorescence ratio of 1.25.
Work on AACGGATCAG yielded a switch fluorescence ratio of 1.04.
With AACGGATGAC the switch fluorescence ratio was 0.989.
AACGGCGATC showed a switch fluorescence ratio of 1.25.
AACGGTCTAT was tested, and the switch fluorescence ratio was 1.02.
AACGGTGGCA showed a switch fluorescence ratio of 0.964.
Sequence AACGGTGGTA has a switch fluorescence ratio of 0.991.
With AACGGTTTTA the switch fluorescence ratio was 0.997.
With AACGTAGACC the switch fluorescence ratio was 1.08.
In the case of AACGTCATGA, the switch fluorescence ratio is reported as 1.02.
AACGTCTGTT showed a switch fluorescence ratio of 1.02.
AACGTGCGGG was tested, and the switch fluorescence ratio was 0.972.
AACGTTGTGT showed a switch fluorescence ratio of 1.
AACGTTTTAT gave a switch fluorescence ratio of 1.03.
In the case of AACTAACCCC, the switch fluorescence ratio is reported as 1.16.
AACTACGGTC showed a switch fluorescence ratio of 1.14.
In the case of AACTAGAAAT, the switch fluorescence ratio is reported as 1.07.
With AACTAGACTC the switch fluorescence ratio was 1.09.
AACTAGAGAG was tested, and the switch fluorescence ratio was 1.04.
For AACTAGATTT, the switch fluorescence ratio was 0.98.
AACTAGCATG showed a switch fluorescence ratio of 1.02.
Work on AACTAGCCTC yielded a switch fluorescence ratio of 1.06.
AACTAGGGGT gave a switch fluorescence ratio of 1.01.
AACTAGTACG was tested, and the switch fluorescence ratio was 0.989.
For AACTAGTCTG, the switch fluorescence ratio was 1.01.
AACTATATAT gave a switch fluorescence ratio of 1.07.
In the case of AACTATCAGG, the switch fluorescence ratio is reported as 1.14.
With AACTCCTCTA the switch fluorescence ratio was 1.05.
For AACTCGACAA, the switch fluorescence ratio was 1.16.
Sequence AACTCGGATT has a switch fluorescence ratio of 1.06.
AACTCTGTT gave a switch fluorescence ratio of 0.996.
Work on AACTCTTCTA yielded a switch fluorescence ratio of 1.05.
AACTGCAAGC was tested, and the switch fluorescence ratio was 1.53.
In the case of AACTGCCGA, the switch fluorescence ratio is reported as 1.04.
AACTGCTGTT showed a switch fluorescence ratio of 1.06.
In the case of AACTGGCACA, the switch fluorescence ratio is reported as 1.05.
In the case of AACTGGGATT, the switch fluorescence ratio is reported as 1.03.
AACTGTGTGA showed a switch fluorescence ratio of 0.975.
For AACTGTTGTT, the switch fluorescence ratio was 1.
With AACTTAAGAT the switch fluorescence ratio was 0.987.
Work on AACTTACGTC yielded a switch fluorescence ratio of 1.28.
For AACTTGTGAC, the switch fluorescence ratio was 1.07.
AACTTTATGT gave a switch fluorescence ratio of 1.03.
In the case of AACTTTCAAA, the switch fluorescence ratio is reported as 1.01.
AACTTTCTCC was tested, and the switch fluorescence ratio was 2.31.
Work on AACTTTTGAA yielded a switch fluorescence ratio of 0.996.
For AAGAAGCCAA, the switch fluorescence ratio was 0.985.
With AAGAAGGGTT the switch fluorescence ratio was 1.01.
AAGAAGTAAC gave a switch fluorescence ratio of 1.05.
In the case of AAGAAGTAGC, the switch fluorescence ratio is reported as 1.03.
AAGAAGTTTC gave a switch fluorescence ratio of 0.996.
For AAGAATACAC, the switch fluorescence ratio was 1.01.
Work on AAGAATGTGC yielded a switch fluorescence ratio of 1.02.
Work on AAGACATTTT yielded a switch fluorescence ratio of 0.979.
Sequence AAGACGCGGT has a switch fluorescence ratio of 1.02.
Sequence AAGACGTCAT has a switch fluorescence ratio of 1.03.
AAGACGTGGC gave a switch fluorescence ratio of 1.02.
AAGACTCGTT was tested, and the switch fluorescence ratio was 1.01.
AAGACTGTAG gave a switch fluorescence ratio of 0.997.
For AAGAGATGA, the switch fluorescence ratio was 1.01.
Work on AAGAGCGCTT yielded a switch fluorescence ratio of 0.967.
For AAGAGCGTAG, the switch fluorescence ratio was 0.969.
AAGAGTTATA gave a switch fluorescence ratio of 0.999.
AAGAGTTGTG showed a switch fluorescence ratio of 0.952.
With AAGATCTAAT the switch fluorescence ratio was 0.994.
Sequence AAGATGATCG has a switch fluorescence ratio of 1.03.
AAGATTTATG was tested, and the switch fluorescence ratio was 0.972.
Sequence AAGATTTGAT has a switch fluorescence ratio of 0.99.
AAGCAAAATT gave a switch fluorescence ratio of 0.983.
For AAGCAAATTG, the switch fluorescence ratio was 1.04.
For AAGCAACTTG, the switch fluorescence ratio was 1.06.
In the case of AAGCACAAAC, the switch fluorescence ratio is reported as 1.38.
Sequence AAGCACAGA has a switch fluorescence ratio of 1.13.
AAGCACGTGT was tested, and the switch fluorescence ratio was 1.01.
AAGCAGATGG was tested, and the switch fluorescence ratio was 1.03.
Sequence AAGCAGCTAT has a switch fluorescence ratio of 3.
AAGCAGGACA gave a switch fluorescence ratio of 1.08.
For AAGCATGCTA, the switch fluorescence ratio was 0.984.
With AAGCATTAAT the switch fluorescence ratio was 0.997.
Work on AAGCCATTCG yielded a switch fluorescence ratio of 1.03.
For AAGCCCTCAG, the switch fluorescence ratio was 1.01.
With AAGCCGAACC the switch fluorescence ratio was 1.46.
In the case of AAGCCGAGCT, the switch fluorescence ratio is reported as 1.03.
With AAGCCGGGT the switch fluorescence ratio was 0.935.
Work on AAGCCTATCA yielded a switch fluorescence ratio of 1.03.
With AAGCCTGCTT the switch fluorescence ratio was 0.974.
AAGCCTGTAC gave a switch fluorescence ratio of 1.66.
For AAGCGAATGA, the switch fluorescence ratio was 1.05.
Work on AAGCGCAAGG yielded a switch fluorescence ratio of 1.15.
With AAGCGCGGCT the switch fluorescence ratio was 1.03.
With AAGCGCGT the switch fluorescence ratio was 1.04.
Sequence AAGCGGTTTG has a switch fluorescence ratio of 0.993.
With AAGCGTGACC the switch fluorescence ratio was 0.984.
With AAGCGTGTA the switch fluorescence ratio was 1.05.
Sequence AAGCTATGTC has a switch fluorescence ratio of 1.06.
In the case of AAGCTATTGT, the switch fluorescence ratio is reported as 0.972.
AAGCTCTATT was tested, and the switch fluorescence ratio was 0.975.
Work on AAGCTGGAG yielded a switch fluorescence ratio of 1.09.
With AAGCTGGATA the switch fluorescence ratio was 0.949.
Work on AAGCTGGCCG yielded a switch fluorescence ratio of 0.967.
In the case of AAGCTTAGGT, the switch fluorescence ratio is reported as 1.02.
AAGCTTGTC gave a switch fluorescence ratio of 1.05.
With AAGCTTTAAA the switch fluorescence ratio was 1.03.
AAGGAAGAAG was tested, and the switch fluorescence ratio was 1.01.
AAGGAAGGAT showed a switch fluorescence ratio of 0.988.
For AAGGACCCAC, the switch fluorescence ratio was 1.43.
AAGGAGAGAG showed a switch fluorescence ratio of 0.959.
For AAGGAGCGCA, the switch fluorescence ratio was 1.04.
AAGGATCCTG gave a switch fluorescence ratio of 1.02.
AAGGATCGGG gave a switch fluorescence ratio of 0.993.
AAGGATTTTA was tested, and the switch fluorescence ratio was 0.96.
With AAGGCAAGTA the switch fluorescence ratio was 1.03.
Sequence AAGGCAGCTG has a switch fluorescence ratio of 0.92.
AAGGCATCGG gave a switch fluorescence ratio of 0.974.
Sequence AAGGCATTAG has a switch fluorescence ratio of 1.05.
AAGGCCCGAT was tested, and the switch fluorescence ratio was 1.
In the case of AAGGCCGAAA, the switch fluorescence ratio is reported as 1.06.
With AAGGCTACAA the switch fluorescence ratio was 1.04.
With AAGGCTCTAT the switch fluorescence ratio was 0.957.
Sequence AAGGCTGGGA has a switch fluorescence ratio of 1.
In the case of AAGGCTTGTG, the switch fluorescence ratio is reported as 1.01.
With AAGGGACACT the switch fluorescence ratio was 1.02.
With AAGGGAGGTG the switch fluorescence ratio was 1.04.
For AAGGGAGTAT, the switch fluorescence ratio was 1.01.
AAGGGATTCA gave a switch fluorescence ratio of 0.929.
Sequence AAGGGCCAAG has a switch fluorescence ratio of 0.994.
For AAGGGCGCGT, the switch fluorescence ratio was 0.961.
In the case of AAGGGGCAGT, the switch fluorescence ratio is reported as 1.03.
With AAGGGGCTCG the switch fluorescence ratio was 0.951.
With AAGGGGGCG the switch fluorescence ratio was 1.05.
AAGGGGGTA was tested, and the switch fluorescence ratio was 0.968.
Work on AAGGGTCGGC yielded a switch fluorescence ratio of 0.952.
In the case of AAGGGTGATA, the switch fluorescence ratio is reported as 1.03.
With AAGGGTGTCC the switch fluorescence ratio was 0.974.
In the case of AAGGGTTAA, the switch fluorescence ratio is reported as 1.02.
AAGGGTTAAA showed a switch fluorescence ratio of 1.
Sequence AAGGGTTTCC has a switch fluorescence ratio of 1.02.
With AAGGGTTTTG the switch fluorescence ratio was 0.964.
Sequence AAGGTAAAGA has a switch fluorescence ratio of 1.
For AAGGTACGGT, the switch fluorescence ratio was 1.04.
AAGGTAGGTT was tested, and the switch fluorescence ratio was 1.11.
With AAGGTAGTCC the switch fluorescence ratio was 0.965.
In the case of AAGGTAGTGA, the switch fluorescence ratio is reported as 1.03.
AAGGTCGCCT showed a switch fluorescence ratio of 0.984.
AAGGTGAGTA was tested, and the switch fluorescence ratio was 0.97.
With AAGGTGCTAG the switch fluorescence ratio was 1.02.
In the case of AAGGTGGTCA, the switch fluorescence ratio is reported as 1.01.
Work on AAGGTGTAAA yielded a switch fluorescence ratio of 0.927.
For AAGGTTATAC, the switch fluorescence ratio was 1.05.
AAGGTTATCG showed a switch fluorescence ratio of 1.05.
In the case of AAGGTTTGAT, the switch fluorescence ratio is reported as 1.01.
Work on AAGGTTTGTC yielded a switch fluorescence ratio of 1.03.
For AAGTAAATTG, the switch fluorescence ratio was 0.985.
AAGTAAGAGA was tested, and the switch fluorescence ratio was 1.01.
AAGTAAGGC was tested, and the switch fluorescence ratio was 1.06.
For AAGTACAGGT, the switch fluorescence ratio was 1.24.
AAGTACTCTA gave a switch fluorescence ratio of 1.22.
Work on AAGTAGAAGA yielded a switch fluorescence ratio of 1.01.
For AAGTAGACTA, the switch fluorescence ratio was 1.01.
Work on AAGTAGAGGC yielded a switch fluorescence ratio of 1.03.
Work on AAGTAGTCGG yielded a switch fluorescence ratio of 0.989.
AAGTATAGAT showed a switch fluorescence ratio of 0.988.
In the case of AAGTATGGCC, the switch fluorescence ratio is reported as 0.93.
Sequence AAGTATGTGT has a switch fluorescence ratio of 1.03.
Work on AAGTATTGAC yielded a switch fluorescence ratio of 1.06.
In the case of AAGTCCGGGT, the switch fluorescence ratio is reported as 0.984.
AAGTCGATG was tested, and the switch fluorescence ratio was 0.979.
AAGTCGGAAG showed a switch fluorescence ratio of 1.
AAGTCGGAGA showed a switch fluorescence ratio of 1.41.
AAGTCGTAGG was tested, and the switch fluorescence ratio was 0.965.
With AAGTCGTATT the switch fluorescence ratio was 1.01.
AAGTCTATCG gave a switch fluorescence ratio of 1.03.
In the case of AAGTCTATGC, the switch fluorescence ratio is reported as 1.01.
Sequence AAGTGAAAGG has a switch fluorescence ratio of 0.966.
For AAGTGAACGT, the switch fluorescence ratio was 1.
For AAGTGAATC, the switch fluorescence ratio was 0.972.
AAGTGAGGTA gave a switch fluorescence ratio of 0.951.
